Source: PubChem BioAssay AID1466 (National Center for Advancing Translational Sciences (NCATS), 2008)
About 10 (0.005%) of roughly 200,000 compounds were called active. Inconclusive results, whose numbers are uncertain, are shown with a selection of clear calls. Calls come from the whole dose curve; as a rule, active = well fitted inhibition curve with a large enough effect; inconclusive = small, poorly fitted or top-dose-only effect, or effect the other way, or another doubt; inactive = no such curve, though single readings can be large or run the other way. Where the call is inconclusive, the potency comes from a doubtful curve fit.

molecular target: Lysosomal alpha-glucosidase (Homo sapiens) (UniProt P10253); experiment: qHTS Assay for Inhibitors of Human alpha-Glucosidase as a Potential Chaperone Treatment of Pompe Disease; settings: purified human GAA, 4-MU-alpha-glucoside fluorescence; activity change, negative = inhibition: at 76.9 µM (top of the series) unless noted;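 for activity change, negative = inhibition: plate controls were uninhibited enzyme wells for no effect and no-enzyme background for full effect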
Outline: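 Read-out is 4-methylumbelliferone fluorescence (Ex 365/Em 440 nm) after NaOH/glycine stop at pH 10. Enzyme 4 nM, substrate 400 uM, pH 5.0 citrate buffer, 20 min room temperature; AC50 from Hill-equation concentration-response.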
Potency is the fitted concentration of half-maximal effect; tags give direction and shape of the fitted curve.

Activity change, negative = inhibition, inconclusive:
COC(=O)C1=CN(Cc2ccc(OC)c(OC)c2)C=C(C(=O)OC)C1c1cccs1 51.9% [activator], CC(C)NC(=O)CN1CCC(c2ccccc2)C(O)C1 (stereo unspecified) 17.7% [activator], COC(=O)CC1=NN(c2ccc(OC)cc2)C(=O)C1 4% [activator], CC(=O)Nc1ccc2c(c1)nc1n2CCN(C2CCCCC2)C1 16.8% [activator], Cn1c(SCC(=O)NCCc2ccc(S(N)(=O)=O)cc2)nc2ccccc2c1=O -15.2% [inhibitor], COc1ccc(N2C(=O)CC(N(Cc3ccc(S(N)(=O)=O)cc3)C(C)=O)C2=O)cc1 (stereo unspecified) -15% [inhibitor], Cc1cc(NS(=O)(=O)c2ccc(NS(=O)(=O)c3ccc(CC(C)C)cc3)cc2)nc(C)n1 -16% [inhibitor], COc1ccccc1NC(=O)c1ccc(NC(=O)COC(=O)C(C)C)cc1 -19.8% [inhibitor], NC(=O)c1ccc(C2SCC(=O)N2Cc2ccccc2)cc1 (stereo unspecified) 17.7% [activator], CSC1=C(C#N)C(c2ccccc2C)C(C#N)=C(N)N1 (stereo unspecified) -17% [inhibitor], C=CCN1CCN(Cc2cnc(Cl)s2)CC1 -21.5% [inhibitor], COc1cccc(N2C(C(C)=O)=NN(c3ccccc3)C2c2ccc(N3CCOCC3)cc2)c1 (stereo unspecified) -18% [inhibitor]

Activity change, negative = inhibition, inactive:
Cc1c(N=Cc2ccco2)c(=O)n(-c2ccccc2)n1C 3%, COc1cc2c(C(=O)NCc3ccc(C)o3)cn(CC(C)C)c(=O)c2cc1OC 0.124%, Nc1nc(N2CCN(c3ccccc3)CC2)n[nH]1 7.16%, C=CCn1c(SCC(=O)c2ccc(O)c(O)c2)nnc1-c1ccccc1OC -2.99%, COc1ccc(/C=N/N=C(\N)c2nonc2N)cc1 -0.769%, CN(CCc1ccccn1)C(=O)Nc1ccc(C(C)(C)C)cc1 -5.66%, CCn1c(SCC(=O)N/N=C/C=C\c2ccco2)nc2ccccc21 0.932%, CC1(C)Cc2c(c(-c3ccccc3)nc3[nH][nH]c(=O)c23)CO1 -2.31%

Potency, inconclusive:
O=C(NCC1CCCO1)c1coc2nc3ccccc3nc12 (stereo unspecified) 35.5 µM [activator, partial curve], O=C(CN1C(=O)c2ccccc2S1(=O)=O)NCCSCc1ccco1 50.1 µM [inhibitor, single point], C=CCn1c(CCC(=O)Nc2ccc(C)c(Cl)c2)nnc1SCC(=O)Nc1ccccc1C 5.01 µM [inhibitor, full curve], CCCCN(C(=O)c1c(C)[nH]c(C(=O)OCC)c1C)c1ccccc1 50.1 µM [inhibitor, single point], COc1ccc(C2=C(SC)CC2=NC(C)(C)C)cc1 10 µM [inhibitor, partial curve], CC(C)(C)NC(=O)C(c1ccccc1)N(Cc1cccs1)C(=O)c1csnn1 (stereo unspecified) 5.01 µM [inhibitor, single point], CC/C(=N\O)c1ccc(OC)c(OC)c1 56.2 µM [inhibitor, single point], O=S(=O)(c1ccc(NC2CCCc3ccccc32)nc1)N1CCOCC1 (stereo unspecified) 31.6 µM [inhibitor, single point], O=C(NC1CCCCCC1)c1ccc2nc3cc(Cl)ccc3c(=O)n2c1 12.6 µM [activator, partial curve], O=C(Nc1cccc(Cl)c1)N(CCN1CCOCC1)Cc1cccc(Cl)c1 12.6 µM [inhibitor, partial curve, poor fit], Cc1ccc(S(=O)(=O)c2c(C(=O)c3ccccc3)cnc3cc4c(cc23)OCCO4)cc1 56.2 µM [activator, single point], COC(=O)c1ccc(CSc2ncnc3ccccc23)o1 50.1 µM [inhibitor, partial curve], Nc1ccc(-c2nc3ccc(N)cc3o2)cc1 35.5 µM [activator, partial curve], Clc1cccc(NCc2nnc3n2CCCCC3)c1 50.1 µM [inhibitor, single point], COC(=O)c1sc(S(=O)(=O)N2CCCCC2)c(C(=O)OC)c1C 7.94 µM [inhibitor, full curve], NC(=O)COC(=O)c1ccc(C(=O)C(=O)c2ccccc2)cc1 25.1 µM [inhibitor, single point], O=c1c2ccccc2c(C=NC2CCN(Cc3ccccc3)CC2)c(O)n1Cc1ccc2c(c1)OCO2 56.2 µM [inhibitor, single point], CCCn1cc(CN2CCCC(C(=O)c3cccc(OC(C)C)c3)C2)c(C)n1 (stereo unspecified) 1.41 µM [inhibitor, full curve, poor fit], CCCCc1nn(-c2cc(Cl)ccc2OC)c2c1C(=O)CC(C)(C)C2 50.1 µM [inhibitor, single point], Nc1nc(SCC(=O)OCc2ccccc2)[nH]c(=O)c1NC(=O)c1ccco1 20 µM [inhibitor, single point], O=C(Nc1cccc(NS(=O)(=O)c2ccc(S(=O)(=O)NC3CC3)cc2)c1)c1ccccn1 28.2 µM [inhibitor, partial curve, poor fit], Cc1sc(NC(=O)c2ccccc2F)c(CN2CCCCC2C)c1C (stereo unspecified) 2 µM [inhibitor, full curve], CC(=O)c1sc(NC(=O)c2c(F)cccc2F)nc1C 50.1 µM [inhibitor, single point], CCOC(=O)c1cc(-c2ccc(C)cc2)nc2nc(SC)[nH]c(=O)c12 25.1 µM [activator, partial curve], O=S(=O)(c1ccc(-c2csc(-c3cccnc3)n2)cc1)N1CCOCC1 50.1 µM [inhibitor, partial curve, poor fit], C=CCNS(=O)(=O)c1nc(C)c(Cl)c(C)c1C#N 50.1 µM [inhibitor, single point], COc1ccc(C)cc1-n1c(=O)c2ccccc2c2ccccc2c1=O 1.26 µM [inhibitor, single point], c1ccc(N2N=C(c3cccs3)CC2c2ccco2)cc1 (stereo unspecified) 25.1 µM [activator, partial curve], C/C(=N\NC(=O)c1ccc(Cn2cc([N+](=O)[O-])cn2)o1)c1cccc(NC(=O)C(C)C)c1 3.98 µM [inhibitor, partial curve, poor fit], CCNc1cc2oc(=O)c(CN3CCOCC3)c(C)c2cc1C 31.6 µM [activator, partial curve], Cc1nn(-c2ccc(Cl)c(Cl)c2)c(=O)c2ccccc12 2.51 µM [inhibitor, partial curve, poor fit], Cc1ccc(NC(=O)C2CCCCC2C(=O)O)cc1C (stereo unspecified) 50.1 µM [inhibitor, single point], Cc1ccccc1OCC(=O)Nc1cc(S(=O)(=O)N2CCCCC2)ccc1N1CCN(C)CC1 22.4 µM [inhibitor, partial curve], O=C(NCCCN1CCOCC1)C1CC(=O)N(CCc2ccccc2)C1 (stereo unspecified) 25.1 µM [inhibitor, partial curve], COc1ccccc1-c1ccc(/C=C2/C=C(CC(C)C)OC2=O)o1 31.6 µM [activator, partial curve], COCCCNC(=O)c1ccccc1NS(=O)(=O)c1ccc(C)cc1 0.282 µM [inhibitor, full curve, poor fit], COc1ccc2c(c1)c(=O)oc1cc(OCC(=O)N3CCC(C)CC3)ccc12 15.8 µM [activator, partial curve], Cc1cnc(NC(=O)CC2CCCC2)s1 12.6 µM [inhibitor, single point], CCCC1(c2ccccc2)NC(=O)N(CC(=O)c2[nH]c(C)c(C(=O)OCC)c2C)C1=O (stereo unspecified) 8.91 µM [inhibitor, full curve], CC(C)Nc1nc(NC(C)C)nc(Oc2ccc(/C=N/O)cc2)n1 0.178 µM [inhibitor, full curve, poor fit], Cn1c(-c2c(N)n(C3CCCC3)c3nc4ccccc4nc23)nc2ccccc21 56.2 µM [inhibitor, single point], c1ccc(CCNc2nc(-c3ccncc3)cs2)cc1 39.8 µM [inhibitor, single point], CCOC(=O)C1CCN(Cc2nc3ccc([N+](=O)[O-])cc3c(=O)n2-c2ccc(OC)cc2OC)CC1 35.5 µM [inhibitor, single point], COc1ccnc(Oc2ccc(C)cc2C)c1C#N 56.2 µM [inhibitor, single point], Cn1c(=O)c2[nH]c(N3CCN(c4ccccn4)CC3)nc2n(C)c1=O 1.58 µM [activator, full curve, poor fit], Cn1ncc(Br)c1C(=O)Nc1ccc(F)cc1F 12.6 µM [inhibitor, single point]
